# Source: the supplement of paper PMC8728848
# The list shows a part of the results.
# B1: Pwp2 (Candida glabrata) (protein)
# chain: MGSSHHHHHHSSGLVPRGSHMASKNPVELNNVCTFPNDYGRIPGFTVLVGRLGLLISASDYKELLRYPGAFLIATQDTMTTSPNFELTGFPFFTGLYGLTVFPLDLLVELRGYFVPPNSGQYTFTLSDSDDAAIIFLGNPSAFPCGDLQNWPKPSEEDITVTDHLFPSRTLYLIEGVAYPMRIAYYNGIGAGRLNAAFIDPSGTRHTNWEGYIWQYDPCSTCTYS
# Tests used:
# Assay in all cases: glycan array binding signal (z-score within array); higher = stronger binding
# Settings in all cases: glycan notation: IUPAC condensed, linker removed
# [1] = target: Fuc(a1-2)[GalNAc(a1-3)]Gal(b1-3)GlcNAc(b1-6)GalNAc
# Summary of the method: (§1)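 Glycan array data came from 3228 arrays in the Consortium for Functional Glycomics database, and only arrays with an available protein sequence were kept. Glycan names were put into IUPAC-condensed notation, and columns mapping to the same glycan were averaged. The binding signal is a within-array Z-score, averaged across arrays of one protein sequence run at different concentrations or buffers and across linkers. A negative Z-score can be read as non-binding.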
# [2] = target: Fuc(a1-2)[GalNAc(a1-3)]Gal(b1-4)Glc
# Summary of the method: as §1
# [3] = target: Fuc(a1-2)[GalNAc(a1-3)]Gal(b1-4)GlcNAc
# Summary of the method: as §1
# [4] = target: Fuc(a1-2)[GalNAc(a1-3)]Gal(b1-4)GlcNAc(b1-2)Man
# Summary of the method: as §1
# [5] = target: Fuc(a1-2)[GalNAc(a1-3)]Gal(b1-4)GlcNAc(b1-2)Man(a1-3)[Fuc(a1-2)[GalNAc(a1-3)]Gal(b1-4)GlcNAc(b1-2)Man(a1-6)]Man(b1-4)GlcNAc(b1-4)GlcNAc
# Summary of the method: as §1
# [6] = target: Fuc(a1-2)[GalNAc(a1-3)]Gal(b1-4)GlcNAc(b1-2)Man(a1-3)[Fuc(a1-2)[GalNAc(a1-3)]Gal(b1-4)GlcNAc(b1-2)Man(a1-6)]Man(b1-4)GlcNAc(b1-4)[Fuc(a1-6)]GlcNAc
# Summary of the method: as §1
# [7] = target: Fuc(a1-2)[GalNAc(a1-3)]Gal(b1-4)GlcNAc(b1-3)Gal(b1-4)GlcNAc
# Summary of the method: as §1
# [8] = target: Fuc(a1-2)[GalNAc(a1-3)]Gal(b1-4)GlcNAc(b1-3)Gal(b1-4)GlcNAc(b1-3)Gal(b1-4)GlcNAc
# Summary of the method: as §1
# [9] = target: Fuc(a1-2)[GalNAc(a1-3)]Gal(b1-4)GlcNAc(b1-3)GalNAc
# Summary of the method: as §1
# [10] = target: Fuc(a1-2)[GalNAc(a1-3)]Gal(b1-4)GlcNAc(b1-3)[Fuc(a1-2)[GalNAc(a1-3)]Gal(b1-4)GlcNAc(b1-6)]GalNAc
# Summary of the method: as §1
# [11] = target: Fuc(a1-2)[GalNAc(a1-3)]Gal(b1-4)GlcNAc(b1-6)GalNAc
# Summary of the method: as §1
# [12] = target: Fuc(a1-2)[GalNAc(a1-3)]Gal(b1-4)[Fuc(a1-3)]GlcNAc
# Summary of the method: as §1
# [13] = target: Fuc(a1-2)[GalNAc(a1-3)]Gal(b1-4)[Fuc(a1-3)]GlcNAc(b1-3)GalNAc
# Summary of the method: as §1
# [14] = target: Fuc(a1-2)[GalNAc(a1-4)]Gal(b1-4)GlcNAc
# Summary of the method: as §1
# [15] = target: Fuc(a1-2)[GalNAc(b1-3)]Gal
# Summary of the method: as §1
# [16] = target: Fuc(a1-3)GlcNAc
# Summary of the method: as §1
# [17] = target: Fuc(a1-3)[Gal(b1-4)]Glc6S
# Summary of the method: as §1
# [18] = target: Fuc(a1-3)[Gal(b1-4)]GlcNAc
# Summary of the method: as §1
# [19] = target: Fuc(a1-3)[Gal(b1-4)]GlcNAc(b1-2)Man
# Summary of the method: as §1
# [20] = target: Fuc(a1-3)[Gal(b1-4)]GlcNAc(b1-2)Man(a1-3)[Fuc(a1-3)[Gal(b1-4)]GlcNAc(b1-2)Man(a1-6)]Man(b1-4)GlcNAc(b1-4)GlcNAc
# Summary of the method: as §1
# [21] = target: Fuc(a1-3)[Gal(b1-4)]GlcNAc(b1-2)Man(a1-3)[Fuc(a1-3)[Gal(b1-4)]GlcNAc(b1-2)Man(a1-6)]Man(b1-4)GlcNAc(b1-4)[Fuc(a1-6)]GlcNAc
# Summary of the method: as §1
# [22] = target: Fuc(a1-3)[Gal(b1-4)]GlcNAc(b1-3)Gal(b1-3)[Fuc(a1-4)]GlcNAc
# Summary of the method: as §1
# [23] = target: Fuc(a1-3)[Gal(b1-4)]GlcNAc(b1-3)Gal(b1-4)[Fuc(a1-3)]GlcNAc
# Summary of the method: as §1
# [24] = target: Fuc(a1-3)[Gal(b1-4)]GlcNAc(b1-3)Gal(b1-4)[Fuc(a1-3)]GlcNAc(b1-3)Gal(b1-4)[Fuc(a1-3)]GlcNAc
# Summary of the method: as §1
# [25] = target: Fuc(a1-3)[Gal(b1-4)]GlcNAc(b1-3)GalNAc
# Summary of the method: as §1
# [26] = target: Fuc(a1-3)[Gal(b1-4)]GlcNAc(b1-6)GalNAc
# Summary of the method: as §1
# [27] = target: Fuc(a1-3)[Gal(b1-4)]GlcNAc(b1-6)[Gal(b1-3)GlcNAc(b1-3)]Gal(b1-4)Glc
# Summary of the method: as §1
# [28] = target: Fuc(a1-3)[Gal(b1-4)]GlcNAc6S
# Summary of the method: as §1
# [29] = target: Fuc(a1-3)[Gal3S(b1-4)]Glc
# Summary of the method: as §1
# [30] = target: Fuc(a1-3)[Gal3S(b1-4)]GlcNAc
# Summary of the method: as §1
# [31] = target: Fuc(a1-3)[Gal3S(b1-4)]GlcNAc6S
# Summary of the method: as §1
# [32] = target: Fuc(a1-3)[GalNAc(b1-4)]GlcNAc
# Summary of the method: as §1
# [33] = target: Fuc(a1-3)[GalNAc(b1-4)]GlcNAc6S
# Summary of the method: as §1
# [34] = target: Fuc(a1-4)GlcNAc
# Summary of the method: as §1
# [35] = target: Fuc(b1-3)GlcNAc
# Summary of the method: as §1
# [36] = target: Gal(a1-2)Gal
# Summary of the method: as §1
# [37] = target: Gal(a1-3)Gal
# Summary of the method: as §1
binder,measurement,setting,value
B1,glycan array binding signal (z-score),[1],-0.396
same,glycan array binding signal (z-score),[2],-0.579
same,glycan array binding signal (z-score),[3],-0.475
same,glycan array binding signal (z-score),[4],-0.575
same,glycan array binding signal (z-score),[5],-0.472
same,glycan array binding signal (z-score),[6],-0.413
same,glycan array binding signal (z-score),[7],-0.413
same,glycan array binding signal (z-score),[8],-0.392
same,glycan array binding signal (z-score),[9],0.995
same,glycan array binding signal (z-score),[10],-0.119
same,glycan array binding signal (z-score),[11],-0.33
same,glycan array binding signal (z-score),[12],-1.2
same,glycan array binding signal (z-score),[13],0.067
same,glycan array binding signal (z-score),[14],-0.499
same,glycan array binding signal (z-score),[15],-0.597
same,glycan array binding signal (z-score),[16],-0.085
same,glycan array binding signal (z-score),[17],3.42
same,glycan array binding signal (z-score),[18],-0.458
same,glycan array binding signal (z-score),[19],0.894
same,glycan array binding signal (z-score),[20],2.54
same,glycan array binding signal (z-score),[21],-0.449
same,glycan array binding signal (z-score),[22],0.403
same,glycan array binding signal (z-score),[23],-0.503
same,glycan array binding signal (z-score),[24],-0.492
same,glycan array binding signal (z-score),[25],-0.514
same,glycan array binding signal (z-score),[26],0.503
same,glycan array binding signal (z-score),[27],-1.15
same,glycan array binding signal (z-score),[28],-0.144
same,glycan array binding signal (z-score),[29],-0.373
same,glycan array binding signal (z-score),[30],-0.368
same,glycan array binding signal (z-score),[31],-0.075
same,glycan array binding signal (z-score),[32],0.493
same,glycan array binding signal (z-score),[33],-0.419
same,glycan array binding signal (z-score),[34],-0.487
same,glycan array binding signal (z-score),[35],-0.556
same,glycan array binding signal (z-score),[36],-0.324
same,glycan array binding signal (z-score),[37],-0.436
